The full ranking holds about 33,000 sequences; the median of “E-score (-0.5 to 0.5)” is about -0.035, and the highest 2% start at about 0.35. Some of the results follow.

The assay concerns the target T1, Pdr3 (UniProt P33200).
T1 sequence: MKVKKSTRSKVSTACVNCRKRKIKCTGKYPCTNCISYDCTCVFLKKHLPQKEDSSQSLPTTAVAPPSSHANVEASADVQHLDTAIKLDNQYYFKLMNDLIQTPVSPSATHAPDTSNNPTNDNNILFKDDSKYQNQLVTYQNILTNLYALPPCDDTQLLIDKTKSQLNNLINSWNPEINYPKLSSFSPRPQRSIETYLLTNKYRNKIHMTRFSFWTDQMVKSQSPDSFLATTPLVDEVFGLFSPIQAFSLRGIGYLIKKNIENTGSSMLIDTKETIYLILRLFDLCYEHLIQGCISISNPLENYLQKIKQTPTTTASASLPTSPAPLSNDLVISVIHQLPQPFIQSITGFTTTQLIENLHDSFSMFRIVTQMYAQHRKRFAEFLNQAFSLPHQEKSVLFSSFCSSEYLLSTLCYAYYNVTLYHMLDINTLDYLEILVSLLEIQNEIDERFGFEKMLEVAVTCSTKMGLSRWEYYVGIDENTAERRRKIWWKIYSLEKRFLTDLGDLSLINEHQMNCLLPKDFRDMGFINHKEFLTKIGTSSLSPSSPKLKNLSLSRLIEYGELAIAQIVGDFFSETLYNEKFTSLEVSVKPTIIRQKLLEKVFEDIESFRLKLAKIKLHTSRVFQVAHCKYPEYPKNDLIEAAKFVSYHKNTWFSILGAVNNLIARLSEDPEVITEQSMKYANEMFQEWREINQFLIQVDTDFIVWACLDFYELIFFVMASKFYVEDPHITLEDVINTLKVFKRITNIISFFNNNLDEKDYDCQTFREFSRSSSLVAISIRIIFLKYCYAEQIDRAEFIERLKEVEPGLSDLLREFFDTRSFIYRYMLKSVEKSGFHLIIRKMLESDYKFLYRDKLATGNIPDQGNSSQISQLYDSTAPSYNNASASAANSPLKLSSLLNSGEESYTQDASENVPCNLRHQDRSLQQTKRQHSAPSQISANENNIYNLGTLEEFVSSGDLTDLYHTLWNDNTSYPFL
As to the kind of experiment: PBM E-score (8-mer binding enrichment) (E-score (-0.5 to 0.5)); higher = stronger / more preferred TF binding; most listed sequences are background and not binding sites. The following applies: protein concentration: 200 nM; construct: GST-full length. In outline: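 GST-tagged yeast TFs (full-length or DNA-binding domain) were made by PURExpress in vitro transcription/translation and applied at about 100-200 nM to universal all-10-mer Agilent arrays. The arrays were made double-stranded by primer extension, on fresh or once-stripped slides. Bound protein was detected with fluorescent anti-GST, and scans were normalised with masliner. Each ungapped eight-base word, pooled with its reverse complement, received an E-score (modified Wilcoxon-Mann-Whitney statistic) from the Universal PBM Analysis Suite.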
For CGTCGTCA, the “PBM E-score” value turned out to be 0.0586.
As for TCGAACCA, the figure is -0.0908.
As for CTGTGATA, the figure is -0.18; as for ATCCGAAT, 0.365; as for ATAGACTG, -0.188.
CGAAACTC: the “PBM E-score” value is -0.0674.
In the case of CCGGAACG, the “PBM E-score” value came out at 0.475.
As for AAGGATCT, the figure is -0.357; as for AGCAGGAA, -0.0425.
As for GAGGGTCC, the figure is 0.0853; as for AACTCATG, -0.103.
With AATTGCAG, the “PBM E-score” value is 0.0317.
As for ACGGCACG, the figure is 0.235; as for CGTATGTA, -0.148; as for TACTCACA, -0.152.
As for CGAGCGAA, the figure is 0.11; as for CGTCGTAG, 0.0191.
As for TTGCCCAA, the figure is -0.0756.
In the case of GTCGAGAC, the “PBM E-score” value came out at 0.101.
Under CCTTGACC stands 0.0672; under GGCGAGAA, 0.0367.
Turning to AGTCCGTG, the “PBM E-score” value stood at 0.193.
Under CTGAACTA stands -0.16; under CCTACCTA, -0.29; under AAAGCCGA, -0.0155.
Under CAGAGCCC stands -0.0899.
CCGTGGGA: the “PBM E-score” value stood at 0.191.
Under CATGATCC stands 0.143; under GCGCCGAA, 0.241.
As for ACCCAGCC, the figure is -0.185; as for GGCGGTCA, 0.0167; as for TAGTTAAA, -0.0289.
As for CATTCTCG, the figure is 0.0449; as for CCATGGGC, 0.0496.
In the case of GCCGACCC, the “PBM E-score” value came out at 0.115.
As for ACTGTTGC, the figure is 0.0396; as for GAGTCAAA, -0.046; as for AGCTAAGA, -0.166.
As for ACGTCATC, the figure is -0.16.
As for CGCCCATA, the figure is 0.124.
As for TAGTCAGA, the “PBM E-score” value is -0.168.
Regarding GCCGTGTA, the “PBM E-score” value turned out to be 0.0838.
As for ATTGATAC, the figure is 0.182; as for CACATAAA, -0.0348; as for GGTGTGAC, -0.223.
As for CAACACTC, the figure is 0.149; as for AAATCTCA, -0.0725.
As for TGACCGCA, the figure is 0.0167; as for CAGAATAC, 0.0339.
As for CTCGAAGA, the “PBM E-score” value is -0.0785.
With ATCTAGAC, the “PBM E-score” value is -0.144.
As for GTCTGAGA, the figure is -0.189; as for GACTTCCA, -0.0818.
On to CATCTCAA, for which the “PBM E-score” value was -0.163.
Under AGCAAATC stands 0.0544; under GGAGAGGA, -0.0401.
Under AGGGTCAC stands -0.27.
As for CCAATCCG, the figure is 0.318; as for GAGGGTTA, -0.131.
As for TAAATGTA, the “PBM E-score” value was -0.102.
For the sequence CCCCGCAC, the “PBM E-score” value came out at 0.138.
Under AATGTAAC stands -0.00273; under CAGATACG, 0.0207; under AAACGCCT, -0.0655.
Regarding AGATATGA, the “PBM E-score” value was 0.0428.
On to CCACGTCA, for which the “PBM E-score” value was -0.131.
As to GATCGTGA, the “PBM E-score” value was -0.0838.
Under AGATGTTA stands -0.202; under TGAATTCA, -0.0488.
As for AAAAAGTT, the figure is -0.0377; as for GGACATCA, 0.191; as for CGAGTGAA, 0.0402.
Under GAAATGTA stands 0.16; under CGTCTGCA, -0.132; under CGCTCAGC, 0.0744.
As for ATCAGCGA, the “PBM E-score” value was -0.0101.
Under CTTATGGA stands -0.119; under GGTCATAC, 0.0319; under GCCCCTCA, -0.0822.
As for AACGTGAA, the figure is -0.168; as for CGACACGC, -0.0394; as for ATCGATCG, 0.022.
As for ATGATGGA, the figure is -0.00822; as for AATAGCTC, -0.0712; as for ACCGGCTG, 0.108.
Regarding CAAGCTTC, the “PBM E-score” value was -0.149.
As for ACGGAACA, the figure is 0.477; as for CCAATAAC, 0.0756; as for CTTACTGC, -0.0466.
Under ACCGCGAA stands 0.251; under GCGACGTA, -0.112.
As to CATACCCC, the “PBM E-score” value was found to be 0.0622.
As for GTTATCAA, the figure is -0.196.
As to AGACTTCG, the “PBM E-score” value was -0.218.
